Data reported in PMC4336329 (PLoS ONE, 2015).
Screen size: about 310,000 compounds; about 2,200 (0.71%) showed an effect of 50% or more. The effect is printed as a negative number. The list shows a part of the results.

Molecular target: human ether-à-go-go-related gene (hERG) potassium channel (human, UniProt Q12809)
Assay: primary screen, population patch clamp on CHO cells stably expressing hERG

Sequence of human ether-à-go-go-related gene (hERG) potassium channel (Q12809 whole entry, looked up): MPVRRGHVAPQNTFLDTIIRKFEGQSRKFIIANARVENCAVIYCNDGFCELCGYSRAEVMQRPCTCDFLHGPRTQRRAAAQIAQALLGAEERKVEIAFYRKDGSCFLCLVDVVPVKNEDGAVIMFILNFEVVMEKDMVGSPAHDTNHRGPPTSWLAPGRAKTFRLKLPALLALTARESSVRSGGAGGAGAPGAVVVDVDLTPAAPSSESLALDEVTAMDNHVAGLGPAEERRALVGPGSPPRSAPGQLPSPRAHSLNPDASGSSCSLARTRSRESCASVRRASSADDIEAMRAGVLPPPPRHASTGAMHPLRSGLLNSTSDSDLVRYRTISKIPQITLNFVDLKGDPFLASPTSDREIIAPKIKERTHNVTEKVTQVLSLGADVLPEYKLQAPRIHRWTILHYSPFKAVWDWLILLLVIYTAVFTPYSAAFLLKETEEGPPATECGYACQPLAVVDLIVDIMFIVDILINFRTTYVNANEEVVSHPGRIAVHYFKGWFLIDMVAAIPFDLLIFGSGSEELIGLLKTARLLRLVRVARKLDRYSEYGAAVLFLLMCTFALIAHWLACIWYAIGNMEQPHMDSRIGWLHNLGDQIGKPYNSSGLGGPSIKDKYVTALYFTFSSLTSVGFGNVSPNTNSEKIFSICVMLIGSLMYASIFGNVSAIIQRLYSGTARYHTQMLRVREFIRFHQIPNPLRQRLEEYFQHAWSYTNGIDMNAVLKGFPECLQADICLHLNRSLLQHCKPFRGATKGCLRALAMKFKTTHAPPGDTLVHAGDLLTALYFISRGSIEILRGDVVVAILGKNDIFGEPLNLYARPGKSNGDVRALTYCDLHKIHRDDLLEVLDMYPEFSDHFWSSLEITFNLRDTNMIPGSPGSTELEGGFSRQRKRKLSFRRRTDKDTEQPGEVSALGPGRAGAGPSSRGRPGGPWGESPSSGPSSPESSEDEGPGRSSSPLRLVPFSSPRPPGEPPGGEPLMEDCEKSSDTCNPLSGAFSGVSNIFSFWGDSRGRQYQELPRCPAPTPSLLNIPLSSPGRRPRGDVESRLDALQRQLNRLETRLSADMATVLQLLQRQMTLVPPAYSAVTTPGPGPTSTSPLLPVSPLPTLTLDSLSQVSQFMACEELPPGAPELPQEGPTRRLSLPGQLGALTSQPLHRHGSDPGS

Row | SMILES | hERG current change (%, negative = inhibition) at 1uM [%]
1 | CCC1CCCCN1CCCNC(=O)c1csc2c1CCCCC2 (centres unmarked) | -24.2
2 | Cc1ccc(S(=O)(=O)N2CCN(CC(=O)Nc3ccnn3C3CCCC3)CC2)cc1 | 0.875
3 | COc1ccc(C(=O)N/C(=C\c2ccccc2)C(=O)NCCCn2ccnc2)cc1 | -18.2
4 | CCOC(=O)c1sc2nc(CC(=O)OC)nc(N(C)CCc3ccccn3)c2c1C | 10.3
5 | NC(=O)c1cc([N+](=O)[O-])ccc1NCc1ccc(F)cc1 | 2.02
6 | CCOc1ccc(Br)cc1C(=O)N/N=C/c1ccc([N+](=O)[O-])cc1 | 15.2
7 | CC(=O)c1c(N2CCN(C(=O)C3CCCO3)CC2)nc(=S)n(-c2ccccc2)c1C (centres unmarked) | 6.82
8 | O=c1c2ccccc2nc(-c2ccco2)n1-c1ccccn1 | 7.94
9 | COC(=O)c1nn(-c2ccc(OC)cc2)ccc1=O | 12.9
10 | C[N+](C)(C)CCOc1ccc([N+](=O)[O-])cc1.[Br-] | -5.29
11 | O=C(NCC1CCCN1S(=O)(=O)c1cccs1)c1ccc(Cl)cc1 (centres unmarked) | -14.4
12 | CCCC(=O)N1CCN(c2nc3c(OC)ccc(Cl)c3s2)CC1 | 0.766
13 | Cc1cccc(C)c1NC(=O)NC1(C(=O)NCCN2CCOCC2)CCCCC1 | 10.3
14 | COc1cc(C)c(NC(=O)COc2ccc3c(c2)CCC3)cc1OC | 4.07
15 | CCOC(=O)c1sc(NC(=O)c2ccc(S(=O)(=O)N3CCCCC3)cc2)nc1-c1ccccc1 | 16.7
16 | Cl.Cn1c(=O)c2c(nc(N3CCOCC3)n2CCCNC2=NCCC2)n(C)c1=O | 13
17 | O=C(CNC(=O)Cn1ccc2ccccc2c1=O)NCCCN1CCCCCC1 | 4.85
18 | O=C(NCc1ccc(OC(F)(F)F)cc1)C1CC2Cn3c(nc4ccccc43)C2N1c1ccccc1 (centres unmarked) | -15.8
19 | Clc1ccc(-n2cccc2/C=N/n2cnnc2)cc1 | 4.11

Row | SMILES | hERG current change (%, negative = inhibition) at 1uM [%]
20 | C/C(=N\OCc1ccc(C#N)cc1)c1ccccc1 | 19.1
21 | Nc1c(-c2ccccc2)c(CN2CCOCC2)nn1-c1ccc(C(=O)O)cc1.O=S(=O)(O)O | 0.0577
22 | O=C(O)/C=C/c1nc(-c2ccccc2)n2ccccc12 | 3.67
23 | CCCCN(C(=O)c1ccc(C)c(S(=O)(=O)N2CCOCC2)c1)c1c(N)n(CCCC)c(=O)[nH]c1=O | 5.43
24 | Cc1ccc(-c2nn3c(C)nnc3c3ccccc23)cc1S(=O)(=O)NCc1ccco1 | -16.2
25 | CC(Sc1nnc(NC2CCCCC2)s1)C(=O)N1CCOCC1 (centres unmarked) | 13.2
26 | CCOc1ccc(N(CC(=O)NCCSCc2ccccc2Cl)S(C)(=O)=O)cc1 | 6.76
27 | O=S(=O)(c1cccc2cccnc12)N1CCN(Cc2ccccc2)CC1 | 1.09
28 | O=C(CCC(=O)c1cccs1)Nc1ccc(F)c(F)c1F | 9.52
29 | O=C(NCCN1CCOCC1)C1CCN(S(=O)(=O)N2CCCCC2)CC1 | 10.7
30 | COc1ccc(OC)c(C(O)c2coc3ccc(O)c(CN4CCOCC4)c23)c1 (centres unmarked) | 3.86
31 | OC(CNCc1ccc(F)cc1)(c1ccc(F)cc1)c1ccc(F)cc1 | 4.16
32 | O=C(COc1ccc(Cl)cc1)NCc1ccncc1 | 2.38
33 | COCCN(CCOC)S(=O)(=O)c1ccc(C(=O)NC2CCN(Cc3ccccc3)CC2)cc1.Cl | -1.24
34 | O=C(CN1CCN(Cc2ccccc2F)C1=O)NCc1ccco1 | 15.2
35 | C[N+](C)(C)CCCCCC[N+](C)(C)C.[Br-] | 5.85
36 | CCOC(=O)c1ccc(-c2c(-c3ccccc3OC)oc3ccccc23)cc1F | 9.68
37 | COc1ccc(OC)c(-c2cc(C(F)(F)F)c3c(n2)sc2c(O)cc(=O)[nH]c23)c1 | 15.2
38 | COc1cccc(Cn2c(=O)c3ccccc3n3nc(C)cc23)c1 | 4.91

Row | SMILES | hERG current change (%, negative = inhibition) at 1uM [%]
39 | CCOc1ccc(-n2c(-c3ccccc3)nnc2-c2ccccc2)cc1 | 2.39
40 | CCc1nnc(SCC(=O)N2CCc3ccccc32)n1CC | 10.2
41 | O=C(O)Cc1ccc(NC(=O)c2cccc(NC(=O)c3ccco3)c2)cc1 | 12.7
42 | Cc1ccc2c(c1)[C@H]1[C@H](CO2)[C@H](c2ccccc2)[C@]2(C)C(=O)NCC(=O)N12 | 14.4
43 | CCCCCSc1nc2c(c(=O)[nH]c(=O)n2C)n1CCc1ccccc1 | 6.05
44 | COc1ccc(S(=O)(=O)N2CCN(C(=O)CCOc3ccccc3)CC2)cc1OC | 3.11
45 | COc1cc(-c2nc(N)n[nH]2)cc(OC)c1OC | 14.4
46 | O=C(NCc1ccccc1)N1CCN(CCO)CC1 | 12.4
47 | OCCc1ccccc1 | 15.8
48 | O=c1cc(-c2ccccc2)nc(Cc2c(Cl)cccc2Cl)[nH]1 | 5.38
49 | C/C(=N\NC(=O)c1cccc(S(=O)(=O)N2CCOCC2)c1)c1ccc(C#N)cc1 | 4.62
50 | C=CCOc1ccc(C(=O)Nc2ccccc2C(=O)NCc2cccnc2)cc1 | 11.4
51 | CCCCn1c(SCc2ccc(Cl)cc2)nc2c1c(=O)[nH]c(=O)n2C | -15.4
52 | Cc1cc(=O)oc2c(C)c(OCC(=O)N3CCC(C(=O)O)CC3)ccc12 | 5.63
53 | COc1ccc(-c2c(C#N)c(N)nc3c2c(=O)n(C)c(=O)n3C)cc1Cl | -3.66
54 | S=C1NC[C@H](CC2CCCCC2)N1CCCCC1CCCCC1 | 13
55 | CC(CCc1ccccc1)NC(=O)CN1C(=O)NC2(CCCCC2C)C1=O (centres unmarked) | 11.3
56 | CNS(=O)(=O)c1cccc(C(=O)NC2CCCc3ccccc32)c1 (centres unmarked) | 1.45
